Experimental data from the supplement of paper PMC11417369.
The other results are listed elsewhere or left out.

These sequences were tested on PfAP2-HC AP2 domain (GST-tagged) (assay: gcPBM binding intensity (ln(normalized median fluorescence intensity)); higher = stronger DNA binding).
How it was run: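 Using an Agilent 4 × 180k array, primer-extended double-stranded 36-bp intergenic genomic probes and negative controls were exposed for 1 h to GST-fused P. falciparum DNA-binding domains expressed in E. coli. Binding was carried out in 1× PBS with 1% milk, 0.2 mg/ml BSA, 0.5% salmon testes DNA and 0.03% Triton X-100, and protein was detected with Alexa488 anti-GST antibody and a 488 nm scan. Binding intensity is the highest Masliner-normalised natural-log median intensity across replicate spots of either probe orientation.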

Sequence	gcPBM binding intensity (ln)
ATATATATATATTGCACACACAATTATTATTATTAT [CACACA_site2299]	10.1
TTTATTTATGTTGAAACATGCAAAAAGTTATTTATA [TGCATGCA_site716]	9.3
TTCAAAAGCCGGATAACATGCAGTAGTAGAACAAAC [TGCATGCA_site413]	9.94
ACTCCATAATATTGATGTACTATAATGCATTTATTT [XGTACX_site5562]	9.9
TATTTATTTTCATATAGTACTTTTTTCAGGCATATA [XGTACX_site6691]	9.55
TTATAGAATTTATTTACACACAAACATTTATACTTT [CACACA_site7592]	9.78
TGGTATATAAAACACACACACATATGTATTTATATA [CACACA_site4665]	10.2
TTTTGCCTTTCTACTTGTACTTAAAATATTATAATT [XGTACX_site5483]	9.82
TTTCTGTGTTTTGGTTGTACACACGCTACATTATAT [XGTACX_site5669]	10.3
TTGTTTTTTTTTTCTATAAGCATAAAAATGATATAA [XGTACX_negctrl_site356]	9.27
AAATTAAAAAAATAATGTACATGTATTTATTATGTA [XGTACX_site2419]	9.71
TTTATTTATTATTAAAGTACTAAATCATATAATTAT [XGTACX_site5727]	9.48
TTTTATTTCTTTGCACCATTTTAAATACAAACAAAT [CACACA_negctrl_site1553]	9.6
TAAAACAATACTTTGTGCTTCTCTGGTTTTTTTTTT [GTGCAC_negctrl_site284]	9.58
GCTTTTAAAATAATTGGTACACATGTATAAATTCAA [XGTACX_site2327]	9.61
AGTATTCACTTAATATGTACATATTTATTATAAGAG [XGTACX_site3434]	9.56
CACAAAAAGAAACACACACACATATATATATATATA [CACACA_site999]	10.2
ATTCTAAATAATAAGAGTACAAATAATATGGAGAAG [XGTACX_site5209]	9.75
GAAAATATGTAATAGTGTACACATATATATGTATAT [XGTACX_site306]	9.87
TGCTCATTCCTGTCATGTACATATTATATATATATA [XGTACX_site6890]	9.91
ATATGAACATTTACATGTACATGTAAATGTAACACT [XGTACX_site4574]	9.67
ACAGTATCTGGTAGCTGTACGAGTCGTAGAGTGTAG [XGTACX_site2011]	9.77

Sequence	gcPBM binding intensity (ln)
AAAATATAAAGTATTTGTACATAATATATTTTTAAA [XGTACX_site3494]	9.66
AATATATAAATAAATATATAAATAAATAATTGAAGC [CACACA_negctrl_site348]	10.1
TTCATTAATGTGTAATGTACTTGTAATATGGGATTA [XGTACX_site3903]	9.48
CATTTTTTAATAATAGCACACAGGACATACAAAACA [CACACA_site1245]	10
TGTTCTCTTCTTTTTTATTTTCCAAAGTAATAAGTT [TGCATGCA_negctrl_site424]	9.51
TATATATATTTATATGCATGTAATATATTTGTATTG [TGCATGCA_site323]	9.71
TAAATAAGTATTACTAGTACACACAAGTTGTTAATC [XGTACX_site7074]	9.79
AATTATTTTATGAAAAGTACACATTGTTTTAATTCT [XGTACX_site4506]	9.47
CATAAATCAGCCATAACACACATACATAAATACATA [CACACA_site4380]	10.2
TTAATTATAATTATATGTACGAACTTTTTTTTTTTT [XGTACX_site6586]	9.47
AGAAAAAAGAGGGATACACACAAACATATATATATA [CACACA_site5269]	10.8
AAATTGATTATAAATTGTACAAGAACATACAACCTT [XGTACX_site5986]	9.72
CAAAAGCGATACGGCACACATTTCCTGTTTAAATGA [CACACA_site5519]	9.75
TTAATTTTTAGAAGAACACACACATATATATTATGA [CACACA_site7969]	9.93
TTATATATTTTATTATTTATAATCTTTTTTTTATTT [CACACA_negctrl_site112]	9.73
TCATATAGATTATACACACACATATATAGATATATA [CACACA_site6587]	10.5
TTATATTTCAATTAAACATGCATTTTTGTGTAGCAC [TGCATGCA_site214]	9.45
TATTATTTATTATATGCACACATCGAACTATTATTT [CACACA_site2544]	10.1
TATTCGAAAGAATAGGCATGCAAACATATCTTATTA [TGCATGCA_site147]	9.93
TTCTATATTATATATGCATGTGTTATTCTTATTTTC [TGCATGCA_site92]	10.1
AAACATATAAATCACGGTACACATTATTGAAAGTGT [XGTACX_site2966]	9.76
ATATAATATTAGTGCACACACAAAAATGTACTAAAC [CACACA_site632]	10

Sequence	gcPBM binding intensity (ln)
ATAAAGAAACATATATGTACTTATATATATATATAT [XGTACX_site5625]	9.69
ATATATATTATATGCACACTTATATTTCATTAGATT [CACACA_site2599]	9.68
ATTGTATCTGTATATGCACACAATATCTGTACTTCT [CACACA_site5445]	10
AAATAATTAAAAAAAAGTACACATGTGACTACATAT [XGTACX_site8767]	9.8
TCATCATATTATATATGTACATATATAATAATTTAT [XGTACX_site1625]	9.66
TTATAATTTTTTTTTGCATGTGGGTTTTTTTTTGTT [TGCATGCA_site968]	9.71
TATATATATGTATACACACATACAAATATGTAAAAA [CACACA_site3720]	9.72
CGAAATCATATGTACACACACATATATATATATATA [CACACA_site2151]	9.94
TTTCAATACTGAAACTGTACTTGTTTTACTTCTATT [XGTACX_site5924]	9.89
CATATTATTTAAACATGTACTCACATATAAATATAA [XGTACX_site6096]	9.57
ATGAGTATACTAAGAACACACAAGTTACTTGGTGTT [CACACA_site4981]	9.83
TAAAAAAAAAAAATGTGTACATATTATATATATCTT [XGTACX_site2615]	9.6
TTTTTTATTATTATGTGTACGAATATGTGCATATAA [XGTACX_site1364]	9.65
TATAACAAGTAATGTTGTACATTATATTATGTAATA [XGTACX_site2769]	9.77
TTTTTTCTCTATATATGTACATATAAAAAATATATC [XGTACX_site6382]	9.56
GTTACACAAACAAACACACACACACGCACGCACAAA [CACACA_site7191]	11.3
CAAAATTAATAAGTCACACACACATCTATAATATAT [CACACA_site6519]	10.3
TTCTTTATTTTTTCTACACACATTAGATATTCAAAG [CACACA_site7624]	9.82
TATATATATATATTCACACATAAGATGAATAAAGTG [CACACA_site4225]	9.7
ACCATAACATGAATTACAGGAATTGAAAATGTTCCA [CACACA_negctrl_site649]	9.53
GGTTACATTTTATTTTGTACATAAAAATTTTTATTT [XGTACX_site218]	9.78
GTATTATATATAAAAGTGCATATTTTTTTCCCTTAC	9.66

Sequence	gcPBM binding intensity (ln)
ATTTTATAATTTATATCACACACATATATATATAGT [CACACA_site7885]	10.1
TGTTTATAAATATAAAAAAATATATATATATATTAT [GTGCAC_negctrl_site247]	9.54
TGTCCCCCTTTCTATGCACACTTTAAATTATTCAAA [CACACA_site4200]	9.91
AAAAAAAAAATACATACACACACACCCACCCATATA [CACACA_site9187]	10.5
ATTAATCCAAATGAATGTACTTAATAATGTAATTAT [XGTACX_site8946]	9.59
AATGATATATTATAAACACACAAAGATGGATATATA [CACACA_site7349]	9.82
TTATATATAAATGAAAGTACAAAACAGGAAAGAATA [XGTACX_site1076]	9.87
ATATATAATATATGTGGTACGCAAAATATTATATTA [XGTACX_site4969]	9.76
AATACACGCAAACACACACACACACCCACATATATA [CACACA_site638]	10.8
TCAATATACCAAAAATGTACAAAAAATAAACAATAT [XGTACX_site8251]	9.78
TTTATATTATAATATAATAATGATCTTAATTTTTTT [XGTACX_negctrl_site100]	9.44
GAACATTTCACATGGTGTACTCTCTTTTTCAAATAA [XGTACX_site1632]	9.62
ATATTTAGAATGTTCCTACACACCAAATTTAAGTGG [CACACA_site2346]	9.8
TTTATTTTACAAAAAAGTACAAGAAGAAATATCAAT [XGTACX_site7812]	9.52
TATTAAAAGTAAAAAACACACATGGATAAATACATA [CACACA_site6048]	10
ATAACATACATAACAACACACAATATTTATCTGTAT [CACACA_site4279]	10
CTCTATATATTATTATGTACTAAATGTATGTATGTA [XGTACX_site7151]	9.7
TTCTTCTGTTTTATTACACACCATTTTGTGTCTACA [CACACA_site8643]	10.5
TAACACACTAAGAAAAGTACTGATTAATATAATTTT [XGTACX_site5536]	9.69
AAAACACAATTTATTACACACATATATTATATATTA [CACACA_site1420]	9.77
ATGAATGAATAAAGAAGTACGGAAATATTAACAAAA [XGTACX_site4695]	9.71
TACGCCTATAACGGCTGTACACCTTACTTTTTTTAA [XGTACX_site6818]	9.7
